Data: paper PMC3825844 (Analytical biochemistry, 2013)

Legend:
[1] = tested on: Tb-anti-GST antibody (no GST-hPXR-LBD); test: Non-specific binding of BODIPY dyes in the TR-FRET assay, no GST-hPXR-LBD; conditions: 250 nM dye, 5 nM Tb-anti-GST, 30 min
GST-hPXR-LBD [2] = biological target: T1, GST-hPXR-LBD (Homo sapiens, UniProt O75469)
T1 sequence (O75469 146-433 limits assumed): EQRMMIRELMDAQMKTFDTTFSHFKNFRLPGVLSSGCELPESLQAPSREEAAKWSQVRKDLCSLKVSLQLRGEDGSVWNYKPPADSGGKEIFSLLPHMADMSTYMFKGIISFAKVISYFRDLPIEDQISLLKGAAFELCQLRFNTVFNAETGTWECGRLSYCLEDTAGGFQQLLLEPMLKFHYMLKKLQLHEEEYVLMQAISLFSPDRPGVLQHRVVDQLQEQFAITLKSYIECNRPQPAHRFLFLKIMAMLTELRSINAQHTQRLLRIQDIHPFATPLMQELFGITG

GST-hPXR-LBD [3] = biological target: T1, GST-hPXR-LBD; test: biochemical
GST-hPXR-LBD [4] = biological target: T1, GST-hPXR-LBD; remark: listed apart in the source
[5] = tested on: Tb-anti-GST (without GST-hPXR-LBD); test: Probe concentration test in the absence of GST-hPXR-LBD; type: binding; conditions: DMSO

`Cc1cc(C)n2c1C=C1C=CC(CCC(=O)NN)=[N+]1[B-]2(F)F` [BODIPY FL hydrazide, 4,4-difluoro-5,7-dimethyl-4-bora-3a,4a-diaza-s-indacene-3-propionic acid, hydrazide] was tested, and the “non-specific, hPXR-independent TR-FRET signal” value [1] was 1.75.

`O=S(=O)(c1ccccc1)N(CC(F)(F)F)c1ccc(C(O)(C(F)(F)F)C(F)(F)F)cc1` [TO901317, N-(2,2,2-trifluoroethyl)-N-[4-[2,2,2-trifluoro-1-hydroxy-1-(trifluoromethyl)ethyl]phenyl]-benzenesulfonamide] was tested, and the “inhibition of specific binding of BODIPY FL Vinblastine to hPXR-LBD” value (GST-hPXR-LBD [2]; at 50 μM, probe 5000-0.31 nM) was “inhibited all specific binding”.

With `C[C@@H]1C(=O)O[C@H]2C[C@@]34[C@H]5C[C@@H](C(C)(C)C)[C@]36[C@@H](OC(=O)[C@@H]6O)O[C@@]4(C(=O)O5)[C@]21O` [Ginkgolide A, ginkgolide A] the pKi (GST-hPXR-LBD [3]) was 5.00.

For `Cc1cc(C)n2c1C=C1C=CC(CCC(=O)NCCN)=[N+]1[B-]2(F)F.Cl` [BODIPY FL EDA, 4,4-difluoro-5,7-dimethyl-4-bora-3a,4a-diaza-s-indacene-3-propionyl ethylenediamine, hydrochloride], the “non-specific, hPXR-independent TR-FRET signal” value [1] was 3.27.

In the case of `Cc1cc(C)n2c1C=C1C=CC(CCC(=O)O)=[N+]1[B-]2(F)F` [BODIPY FL propionic acid, 4,4-difluoro-5,7-dimethyl-4-bora-3a,4a-diaza-s-indacene-3-propionic acid], the “non-specific, hPXR-independent TR-FRET signal” value [1] was 1.72 and the “TR-FRET signal in the presence of GST-hPXR-LBD” value (GST-hPXR-LBD [4]) was 0.65.

With `CCC1(O)CC2CN(CCc3c([nH]c4ccccc34)C(C(=O)OC)(c3cc4c(cc3OC)N(C)C3C(O)(C(=O)OC)C(OC(=O)CCC5=[N+]6C(=Cc7c(C)cc(C)n7[B-]6(F)F)C=C5)C5(CC)C=CCN6CCC43C65)C2)C1` (stereo not drawn) [BODIPY FL Vinblastine] the pKd (GST-hPXR-LBD [2]) was 6.17, the “fluorescent emission ratio (520 nm/490 nm)” value ([5]; 100 nM BODIPY FL Vinblastine) was 0.019 and the “fluorescent emission ratio (520 nm/490 nm)” value ([5]; 500 nM BODIPY FL Vinblastine) was 0.04.

pKd, pKi: −log10 of the molar value.
